# In a collection of fitness landscapes (doi:10.1126/science.1257360):
# The list shows a part of the results.
# B1: PhoQ; a variant is named by its letters at X, in order, P23837 (parent)
# chain: MKKLLRLFFPLSLRVRFLLATAAVVLVLSLAYGMVALIGYSVSFDKTTFRLLRGESNLFYTLAKWENNKLHVELPENIDKQSPTMTLIYDENGQLLWAQRDVPWLMKMIQPDWLKSNGFHEIEADVNDTSLLLSGDHSIQQQLQEVREDDDDAEMTHSVAVNVYPATSRMPKLTIVVVDTIPVELKSSYMVWSWFIYVLSANLLLVIPLLWVAAWWSLRPIEALAKEVRELEEHNRELLNPATTRELTSLVRNLNRLLKSERERYDKYRTTLTDLTHSLKTPLXXLQXXLRSLRSEKMSVSDAEPVMLEQISRISQQIGYYLHRASMRGGTLLSRELHPVAPLLDNLTSALNKVYQRKGVNISLDISPEISFVGEQNDFVEVMGNVLDNACKYCLEFVEISARQTDEHLYIVVEDDGPGIPLSKREVIFDRGQRVDTLRPGQGVGLAVAREITEQYEGKIVAGESMLGGARMEVIFGRQHSAPKDE
# Variants of: B1
# Test: enrichment ratio after two sorts for PhoP signalling (ratio (wild type AVST 3.29)); higher = more functional
# Details: with PhoP (E. coli)
row,Variant,enrichment ratio
1,VSGD,≤ 0.25
2,KGSR,≤ 0.25
3,TPMA,≤ 0.25
4,YRMY,≤ 0.25
5,LVSG,≤ 0.25
6,RMEK,≤ 0.25
7,VMVS,≤ 0.25
8,LDWK,≤ 0.25
9,EYWQ,≤ 0.25
10,CAFT,≤ 0.25
11,YNIT,≤ 0.25
12,GVNP,≤ 0.25
13,NITN,≤ 0.25
14,DATT,≤ 0.25
15,SDGG,≤ 0.25
16,IPIW,≤ 0.25
17,LEFD,≤ 0.25
18,LRGC,≤ 0.25
19,FFNQ,≤ 0.25
20,KTYK,≤ 0.25
21,FTIS,≤ 0.25
22,TFWE,≤ 0.25
23,TNSG,8.46
24,ANIW,≤ 0.25
25,PCNF,≤ 0.25
26,GYIQ,≤ 0.25

row,Variant,enrichment ratio
1,FDDF,≤ 0.25
2,ISCL,≤ 0.25
3,YACR,≤ 0.25
4,IALW,≤ 0.25
5,SNTQ,5.26
6,FPIT,≤ 0.25
7,IQNR,≤ 0.25
8,HKLR,≤ 0.25
9,RWYM,≤ 0.25
10,KYGM,≤ 0.25
11,PTKM,≤ 0.25
12,MADP,≤ 0.25
13,LCTF,≤ 0.25
14,HAHL,≤ 0.25
15,VCRC,≤ 0.25
16,GFFH,≤ 0.25
17,FPHR,≤ 0.25
18,RDRN,≤ 0.25
19,WRPN,≤ 0.25
20,QDRN,≤ 0.25
21,RFCL,≤ 0.25
22,YANF,≤ 0.25
23,HTQN,≤ 0.25
24,TNFT,≤ 0.25
25,YNAC,≤ 0.25
26,FNNT,≤ 0.25

row,Variant,enrichment ratio
1,FMKT,≤ 0.25
2,KQGD,≤ 0.25
3,GILP,≤ 0.25
4,WIIY,≤ 0.25
5,MKKR,≤ 0.25
6,TNCH,≤ 0.25
7,KDGD,≤ 0.25
8,HEFW,≤ 0.25
9,LWRM,≤ 0.25
10,VEVQ,≤ 0.25
11,DHYA,≤ 0.25
12,IQWS,≤ 0.25
13,LGKG,≤ 0.25
14,WSKH,≤ 0.25
15,IQMS,≤ 0.25
16,TEKM,≤ 0.25
17,AKCH,4.9
18,VPSY,≤ 0.25
19,KGKN,≤ 0.25
20,QTRH,≤ 0.25
21,FTRH,≤ 0.25
22,HKEA,≤ 0.25
23,IQLI,≤ 0.25
24,RFAY,1.64
25,AQFD,≤ 0.25
26,TFVD,≤ 0.25

row,Variant,enrichment ratio
1,KHKN,≤ 0.25
2,DVGW,≤ 0.25
3,PPWG,≤ 0.25
4,GKMN,≤ 0.25
5,YKGT,≤ 0.25
6,IEQY,≤ 0.25
7,NPHF,≤ 0.25
8,IQRD,≤ 0.25
9,YMPF,≤ 0.25
10,DCTW,≤ 0.25
11,RKAP,≤ 0.25
12,TFKH,≤ 0.25
13,PLSC,≤ 0.25
14,PREY,≤ 0.25
15,FKKW,≤ 0.25
16,PMEC,≤ 0.25
17,TEYQ,2.43
18,IWHH,≤ 0.25
19,IKLI,≤ 0.25
20,DFRL,≤ 0.25
21,FHNM,≤ 0.25
22,AFFM,≤ 0.25
23,LNFE,≤ 0.25
24,RKWE,≤ 0.25
25,WPQG,≤ 0.25
26,DHTD,≤ 0.25

row,Variant,enrichment ratio
1,VASR,≤ 0.25
2,LNFI,≤ 0.25
3,VLMF,≤ 0.25
4,TSLF,9.28
5,KGDK,≤ 0.25
6,TQNK,≤ 0.25
7,GSAI,5.6
8,MHLR,≤ 0.25
9,LCKP,≤ 0.25
10,EQTE,≤ 0.25
11,PTED,≤ 0.25
12,QLFY,≤ 0.25
13,MAPG,≤ 0.25
14,WVIW,≤ 0.25
15,GKTT,≤ 0.25
16,PYNE,≤ 0.25
17,WSPH,≤ 0.25
18,GYLG,≤ 0.25
19,GRYE,≤ 0.25
20,RMCI,≤ 0.25
21,ARPN,≤ 0.25
22,GNIS,5.86
23,GMQS,≤ 0.25
24,PDPI,≤ 0.25
25,ANSA,7.31
26,RLYY,≤ 0.25

row,Variant,enrichment ratio
1,RSHV,≤ 0.25
2,MHVE,≤ 0.25
3,VCLT,0.608
4,WAKG,≤ 0.25
5,AWFG,≤ 0.25
6,CALH,≤ 0.25
7,WMLS,≤ 0.25
8,DFLG,≤ 0.25
9,MRQV,≤ 0.25
10,QYSS,≤ 0.25
11,DGLH,≤ 0.25
12,CLCI,≤ 0.25
13,MNDH,≤ 0.25
14,AWHG,≤ 0.25
15,GWYM,≤ 0.25
16,QKSS,≤ 0.25
17,AWSW,≤ 0.25
18,AQDM,≤ 0.25
19,GYHH,≤ 0.25
20,DVCI,≤ 0.25
21,VVNC,≤ 0.25
22,FWGP,≤ 0.25
23,MDHS,≤ 0.25
